This is one part of the list. Cleavage of a single-stranded DNA pool by Rep nickase domains was read by sequencing (1 h at 37 °C, 3 µM enzyme); the outer parts of the 90-letter strands are left off. Values are log2 of uncut reads against the no-enzyme pool; uncut sequences lie near 0, cut ones below; no hit call is given. Because reads are shares of a total, they shift together; uncut strands gain when others are lost, and binding without cutting may add a little.
How the values were obtained:
Assay in all cases: uncleaved DNA left, log2 of reads against the no-enzyme library (log2 ratio); higher = less cleavage (more negative = more Rep cleavage of the k-mer); sequences stand for … in CTCGTCCG…ACCGGAGA
[1] = test system: T1, Rep nickase domain of Muscovy duck circovirus
T1 sequence (Rep 1-111, printed without the tag): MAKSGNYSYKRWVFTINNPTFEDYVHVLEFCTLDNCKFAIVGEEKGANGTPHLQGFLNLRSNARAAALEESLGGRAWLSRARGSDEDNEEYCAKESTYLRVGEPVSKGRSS
Method: (§1)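 A pool of 90-nt single-stranded DNAs with seven random bases just before the constant AC of the nick site (name = the seven bases) was cut by 3 µM recombinant His6-SUMO-tagged Rep nickase domain (300 nM DNA, 50 mM HEPES pH 8.0, 50 mM NaCl, 1 mM MnCl2, 1 h, 37 °C, three replicates). Uncut DNA was amplified and sequenced.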

[2] = test system: T2, Rep nickase domain of banana bunchy top virus
T2 sequence (Rep 1-94, printed without the tag): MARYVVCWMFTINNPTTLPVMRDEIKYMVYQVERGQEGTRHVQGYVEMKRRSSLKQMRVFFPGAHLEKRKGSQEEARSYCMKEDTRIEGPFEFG
Method: as §1

[3] = test system: T3, Rep nickase domain of cabbage leaf curl virus
T3 sequence (Rep 1-116, printed without the tag): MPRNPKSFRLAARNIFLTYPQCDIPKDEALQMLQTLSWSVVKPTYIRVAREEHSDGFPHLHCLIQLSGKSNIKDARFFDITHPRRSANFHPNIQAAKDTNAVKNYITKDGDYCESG
Method: as §1

[4] = test system: T4, Rep nickase domain of chickpea chlorotic dwarf virus
T4 sequence (Rep 1-124, printed without the tag): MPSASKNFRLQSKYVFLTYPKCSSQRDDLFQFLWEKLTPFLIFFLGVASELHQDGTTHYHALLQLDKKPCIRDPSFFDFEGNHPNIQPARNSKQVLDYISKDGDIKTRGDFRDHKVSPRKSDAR
Method: as §1

[5] = test system: T5, Rep nickase domain of faba bean necrotic yellows virus
T5 sequence (Rep 1-98, printed without the tag): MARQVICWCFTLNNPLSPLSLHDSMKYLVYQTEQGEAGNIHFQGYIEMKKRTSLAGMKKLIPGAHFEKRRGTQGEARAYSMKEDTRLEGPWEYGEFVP
Method: as §1

[6] = test system: T6, Rep nickase domain of maize striate mosaic virus
T6 sequence (Rep 1-117, printed without the tag): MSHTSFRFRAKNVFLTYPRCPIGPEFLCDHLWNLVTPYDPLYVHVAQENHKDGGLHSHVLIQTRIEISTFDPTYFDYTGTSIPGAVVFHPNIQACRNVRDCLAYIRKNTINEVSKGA
Method: as §1

[7] = test system: T7, Rep nickase domain of porcine circovirus 2
T7 sequence (Rep 2-116, printed without the tag): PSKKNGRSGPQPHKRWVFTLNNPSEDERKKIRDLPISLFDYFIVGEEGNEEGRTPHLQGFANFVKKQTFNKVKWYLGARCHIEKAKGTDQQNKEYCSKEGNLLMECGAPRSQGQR
Method: as §1

[8] = test system: T8, Rep nickase domain of tomato golden mosaic virus
T8 sequence (Rep 1-124, printed without the tag): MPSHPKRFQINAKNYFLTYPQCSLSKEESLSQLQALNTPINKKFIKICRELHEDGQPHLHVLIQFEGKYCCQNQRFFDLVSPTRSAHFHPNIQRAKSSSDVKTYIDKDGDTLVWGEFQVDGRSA
Method: as §1

[9] = test system: T9, Rep nickase domain of tomato yellow leaf curl virus
T9 sequence (Rep 1-136, printed without the tag): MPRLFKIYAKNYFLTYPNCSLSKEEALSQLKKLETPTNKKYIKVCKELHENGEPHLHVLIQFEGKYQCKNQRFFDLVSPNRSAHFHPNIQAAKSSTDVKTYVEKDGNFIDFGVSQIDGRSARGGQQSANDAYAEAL
Method: as §1

[10] = test system: T10, Rep nickase domain of wheat dwarf virus
T10 sequence (Rep 1-137, printed without the tag): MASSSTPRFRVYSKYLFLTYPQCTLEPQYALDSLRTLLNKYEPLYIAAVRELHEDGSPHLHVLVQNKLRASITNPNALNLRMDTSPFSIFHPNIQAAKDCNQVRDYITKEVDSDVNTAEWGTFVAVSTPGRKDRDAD
Method: as §1

Sequence	uncleaved DNA left (log2) [1]	uncleaved DNA left (log2) [2]	uncleaved DNA left (log2) [3]	uncleaved DNA left (log2) [4]	uncleaved DNA left (log2) [5]	uncleaved DNA left (log2) [6]	uncleaved DNA left (log2) [7]	uncleaved DNA left (log2) [8]	uncleaved DNA left (log2) [9]	uncleaved DNA left (log2) [10]
AATAGTT	-0.187	-0.937	-0.869	-2.53	-0.00746	-0.6	-3.46	-0.0433	-0.0487	-0.188
CCCGGTT	0.183	0.0651	0.025	-0.288	0.0679	0.724	0.0491	-0.12	-0.044	-0.00849
GGAAATG	0.155	0.139	0.672	1.61	0.0547	1.7	0.249	-0.0172	-0.00963	0.0748
CGTGACG	0.0677	-0.142	-0.659	-0.443	-0.0337	-0.691	-0.027	-0.175	-0.14	-0.105
TGCGTGT	0.0175	-0.00849	-0.211	-0.487	-0.0762	-0.428	-0.0558	-0.106	-0.082	-0.231
ACGGGTT	0.0871	0.102	0.00271	-0.672	-0.0417	0.341	0.0895	0.0466	-0.0587	-0.169
TAACTGA	0.0371	-0.00466	-0.142	-0.755	0.0158	1.14	0.072	-0.085	-0.0523	0.0197
AAGCTCA	0.0812	0.14	0.126	-1.31	0.106	0.575	-0.642	0.0401	0.0888	0.17
CAACAGA	-0.00747	0.062	-0.205	-1.47	0.0806	-0.828	0.0371	-0.0074	0.0784	0.0641
CGCATAC	0.0377	-0.0868	-0.0897	-0.505	0.0731	-0.61	0.15	-0.0686	-0.05	-0.131
GTATTTG	-0.00405	-2.23e-05	0.0631	0.294	0.0826	-0.331	0.132	0.107	0.0204	0.0802
CAAGACA	-0.0608	-0.0327	0.0643	-1.79	-0.0704	0.062	-0.0483	0.00812	0.0167	-0.107
GCAGACT	0.0464	0.101	0.21	0.297	0.0937	1.31	0.118	0.148	-0.0412	0.0571
GCTAGAA	-0.00728	-0.0453	0.164	0.514	0.00186	0.0588	0.0142	-0.0246	0.014	-0.0359
CGGGTCC	0.0132	-0.0692	0.423	0.829	-0.124	1.24	0.00648	-0.147	-0.0151	-0.0209
CGGCCTA	0.0401	0.0318	0.000849	0.00997	-0.0927	0.27	-0.0754	0.0349	0.00404	0.0309
CGTCTTT	-0.126	-0.0786	-0.106	-1.45	-0.102	-0.235	-0.533	-0.102	0.04	-0.0586
GGCGTTG	0.0155	-0.0678	-0.0916	0.422	-0.122	1.44	-0.0377	-0.0304	-0.143	-0.152
AGGAATA	0.131	0.184	0.115	0.458	0.0709	0.95	0.08	0.168	0.127	0.262
TGCACTC	-0.1	0.0208	0.105	0.321	-0.164	0.262	0.0303	-0.068	0.0356	0.00596
CTGGTTC	0.022	0.0803	0.19	-0.452	-0.0537	0.0534	0.156	-0.05	-0.0598	-0.0172
ACACTTG	0.0769	0.0512	-0.759	-0.954	0.134	-0.985	0.1	0.0449	0.0514	-0.0726
TCATGCT	-1.2	-0.167	-2.36	-2.84	-0.0279	-1.6	-1.41	-0.173	-0.00159	-0.197
AGACTAG	-0.066	0.0711	-0.126	0.129	0.0115	-0.366	0.192	0.0056	0.00613	-0.0742
GTGATCG	-0.0782	-0.0749	-0.448	-0.379	-0.121	-0.767	0.175	-0.147	-0.00977	-0.108
TTAGAAA	0.0196	-0.0266	0.24	0.128	-0.0499	0.0492	0.0655	0.164	-0.00583	0.0213
AATGGCG	-0.00111	0.0351	-0.421	1.03	0.0546	0.223	0.166	-0.037	0.0567	-0.0685
TCTATTG	0.0351	0.0343	-0.401	-0.608	0.0561	-1.02	0.0803	0.031	-0.0914	-0.0364
TCCGACG	0.0924	-0.025	-0.373	-0.405	0.0419	-0.76	0.0143	-0.000691	-0.0568	0.041
TGGGTAG	-0.0103	0.029	0.0213	0.261	0.151	-0.164	0.315	-0.0038	0.137	0.094
